Some of the results follow. The full chains were built here from the parent and the listed change. Values near 0.05 are background.
B1: TEV protease; numbered along this chain (parent)
chain: MGESLFKGPRDYNPISSSICHLTNESDGHTTSLYGIGFGPFIITNKHLFRRNNGTLVVQSLHGVFKVKDTTTLQQHLVDGRDMIIIRMPKDFPPFPQKLKFREPQREERICLVTTNFQTKSMSSMVSDTSCTFPSGDGIFWKHWIQTKDGQCGSPLVSTRDGFIVGIHSASNFTNTNNYFTSVPKNFMELLTNQEAQQWVSGWRLNADSVLWGGHKVFMVKPEEPFQPVKEATQL

Variants of: B1
Test: raw area under fraction-flipped curve 0-4 h after induction (AUC4h, not background-subtracted), DNA-recorder readout of cleavage of the substrate (dimensionless); higher = more cleavage of the substrate by the protease variant
Details: temperature: 34 °C; time window: 0-4 h after rhamnose induction
Protocol: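 In vivo DNA recorder in E. coli TOP10(DE3) ΔrhaA at 34 °C. Each TEVp single-site mutant (parent TEVp 0) is paired with a single-site variant of the 7-mer TEVs (canonical ENLYFQ|S). The substrate sits between flexible linkers in a Bxb1-sfGFP-TEVs-SsrA fusion, so cleavage stabilises Bxb1 and speeds flipping of a recombination array, read by NGS. The value is the raw area under the fraction-flipped curve over 0-4 h after rhamnose induction (AUC4h), with ≥20 reads per time point. It is not background-subtracted; inactive controls average about 0.047.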
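Note: Bxb1 expression induced with 0.2% (w/v) L-rhamnose at OD600 near 0.5, cultures sampled hourly, flipped fraction per protease–substrate barcode pair counted by paired-end Illumina sequencing.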

L73V
area with substrate EALYFQS: 0.117
area with substrate ECLYFQS: 0.121
area with substrate EDLYFQS: 0.11
area with substrate EELYFQS: 0.101
area with substrate EFLYFQS: 0.0884
area with substrate EGLYFQS: 0.0894
area with substrate EHLYFQS: 0.0911
area with substrate EILYFQS: 0.0998
area with substrate EKLYFQS: 0.094
area with substrate ELLYFQS: 0.0798
area with substrate EMLYFQS: 0.087
area with substrate ERLYFQS: 0.0886
area with substrate ESLYFQS: 0.0921
area with substrate ETLYFQS: 0.109
area with substrate EVLYFQS: 0.0888
area with substrate EWLYFQS: 0.0813

N45L
area with substrate EALYFQS: 0.0587
area with substrate ECLYFQS: 0.064
area with substrate EDLYFQS: 0.0466
area with substrate EGLYFQS: 0.0595
area with substrate EHLYFQS: 0.05
area with substrate EILYFQS: 0.0366
area with substrate EKLYFQS: 0.0789
area with substrate ELLYFQS: 0.0545
area with substrate EMLYFQS: 0.0676
area with substrate EPLYFQS: 0.0684
area with substrate EQLYFQS: 0.0617
area with substrate ERLYFQS: 0.0926
area with substrate ESLYFQS: 0.0636
area with substrate EVLYFQS: 0.0549
area with substrate EWLYFQS: 0.0598
area with substrate EYLYFQS: 0.0624

T72Q
area with substrate EALYFQS: 0.121
area with substrate ECLYFQS: 0.119
area with substrate EDLYFQS: 0.112
area with substrate EFLYFQS: 0.102
area with substrate EGLYFQS: 0.0789
area with substrate EILYFQS: 0.103
area with substrate EMLYFQS: 0.12
area with substrate ESLYFQS: 0.118
area with substrate ETLYFQS: 0.0916
area with substrate EYLYFQS: 0.112

K216V
area with substrate EALYFQS: 0.134
area with substrate ECLYFQS: 0.11
area with substrate EDLYFQS: 0.114
area with substrate EELYFQS: 0.112
area with substrate EKLYFQS: 0.109
area with substrate ELLYFQS: 0.0951
area with substrate EQLYFQS: 0.143
area with substrate ERLYFQS: 0.115
area with substrate ESLYFQS: 0.0904
area with substrate ETLYFQS: 0.0966
area with substrate EVLYFQS: 0.093
area with substrate EYLYFQS: 0.153

L48T
area with substrate EALYFQS: 0.101
area with substrate ECLYFQS: 0.0734
area with substrate EELYFQS: 0.0871
area with substrate EFLYFQS: 0.0842
area with substrate EHLYFQS: 0.0764
area with substrate EILYFQS: 0.0792
area with substrate EKLYFQS: 0.0546
area with substrate ELLYFQS: 0.0729
area with substrate EPLYFQS: 0.0574
area with substrate EQLYFQS: 0.0765
area with substrate ERLYFQS: 0.0747
area with substrate ESLYFQS: 0.0726
area with substrate EVLYFQS: 0.0706
area with substrate EYLYFQS: 0.0656

V200F
area with substrate EALYFQS: 0.0685
area with substrate EGLYFQS: 0.0752
area with substrate EKLYFQS: 0.0787
area with substrate EMLYFQS: 0.0823
area with substrate ETLYFQS: 0.0465
area with substrate EVLYFQS: 0.0318

Q75N
area with substrate EALYFQS: 0.0991
area with substrate ECLYFQS: 0.0931
area with substrate EDLYFQS: 0.0838
area with substrate EELYFQS: 0.0337
area with substrate ELLYFQS: 0.062
area with substrate ERLYFQS: 0.0418
area with substrate ESLYFQS: 0.0793
area with substrate EWLYFQS: 0.0684

W141S
area with substrate EALYFQS: 0.0484
area with substrate ECLYFQS: 0.0583
area with substrate EDLYFQS: 0.056
area with substrate EELYFQS: 0.0504
area with substrate EFLYFQS: 0.0496
area with substrate EGLYFQS: 0.0554
area with substrate EHLYFQS: 0.0654
area with substrate EILYFQS: 0.0613
area with substrate EKLYFQS: 0.0812
area with substrate ELLYFQS: 0.0976
area with substrate EMLYFQS: 0.0556
area with substrate EPLYFQS: 0.0674
area with substrate ESLYFQS: 0.0579
area with substrate EVLYFQS: 0.0516
area with substrate EWLYFQS: 0.0575
area with substrate EYLYFQS: 0.0591

K120D
area with substrate EALYFQS: 0.108
area with substrate ECLYFQS: 0.104
area with substrate EDLYFQS: 0.135
area with substrate EGLYFQS: 0.0888
area with substrate EHLYFQS: 0.0732
area with substrate EILYFQS: 0.082
area with substrate EKLYFQS: 0.0837
area with substrate EMLYFQS: 0.0979
area with substrate EPLYFQS: 0.105
area with substrate EQLYFQS: 0.124
area with substrate ESLYFQS: 0.0574
area with substrate EVLYFQS: 0.0834

H168T
area with substrate EALYFQS: 0.0614
area with substrate ECLYFQS: 0.0591
area with substrate EDLYFQS: 0.059
area with substrate EELYFQS: 0.0606
area with substrate EGLYFQS: 0.0544
area with substrate EHLYFQS: 0.0562
area with substrate EILYFQS: 0.0516
area with substrate EKLYFQS: 0.0634
area with substrate ELLYFQS: 0.06
area with substrate EMLYFQS: 0.0598
area with substrate EPLYFQS: 0.0655
area with substrate EQLYFQS: 0.0613
area with substrate ERLYFQS: 0.0435
area with substrate ESLYFQS: 0.0324
area with substrate ETLYFQS: 0.0628
area with substrate EWLYFQS: 0.104
area with substrate EYLYFQS: 0.0477

L5R
area with substrate EALYFQS: 0.151
area with substrate ECLYFQS: 0.143
area with substrate EMLYFQS: 0.13
area with substrate ESLYFQS: 0.117
area with substrate EVLYFQS: 0.111

V165C
area with substrate EALYFQS: 0.116
area with substrate ECLYFQS: 0.0817
area with substrate EELYFQS: 0.105
area with substrate EFLYFQS: 0.0877
area with substrate EGLYFQS: 0.0751
area with substrate EHLYFQS: 0.0973
area with substrate EILYFQS: 0.0746
area with substrate EKLYFQS: 0.0996
area with substrate ELLYFQS: 0.0805
area with substrate EMLYFQS: 0.0711
area with substrate EPLYFQS: 0.105
area with substrate ESLYFQS: 0.0884
area with substrate ETLYFQS: 0.106
area with substrate EVLYFQS: 0.0745

F65A
area with substrate EALYFQS: 0.109
area with substrate ECLYFQS: 0.106
area with substrate EDLYFQS: 0.114
area with substrate EELYFQS: 0.125
area with substrate EGLYFQS: 0.0923
area with substrate EHLYFQS: 0.0621
area with substrate EILYFQS: 0.0643
area with substrate EKLYFQS: 0.113
area with substrate ELLYFQS: 0.0852
area with substrate EMLYFQS: 0.131
area with substrate EQLYFQS: 0.111
area with substrate ERLYFQS: 0.0945
area with substrate ESLYFQS: 0.0881
area with substrate EVLYFQS: 0.0953
area with substrate EWLYFQS: 0.0917

P222W
area with substrate EALYFQS: 0.0994
area with substrate ECLYFQS: 0.0929
area with substrate EDLYFQS: 0.152
area with substrate EELYFQS: 0.0904
area with substrate EGLYFQS: 0.0763
area with substrate EILYFQS: 0.0817
area with substrate EKLYFQS: 0.0857
area with substrate ELLYFQS: 0.0807
area with substrate EMLYFQS: 0.0984
area with substrate EPLYFQS: 0.127
area with substrate EQLYFQS: 0.0995
area with substrate ERLYFQS: 0.0761
area with substrate ESLYFQS: 0.0808
area with substrate ETLYFQS: 0.109
area with substrate EVLYFQS: 0.101
area with substrate EWLYFQS: 0.0768

From the supplement of paper PMC12217912
